Measurements from patent publication US20260035463A1 (MINGHUI PHARMACEUTICAL HANGZHOU, published 2026).
Where a chain is given by its changes, count along the chain named.

B1: 162-17 (bispecific antibody, human IgG1, kappa)
heavy: QVQLVESGGGLVQPGGSLRLSCATSGSRRSIYAMGWFRQAPGKGLEFVAGIGWAYATTYYADSVKGRFTISRDNTKNTLYLQMNSLRAEDTAVYYCAADLDHSGFDYWGQGTLVTVSSGGGGSGGGGSGGGGSEVQLVQSGGGVVQPGGSLRLSCAASGYTFTNYGMNWVRQAPGKGLEWVGWINTYTGEPTYAADFKRRFTFSLDTSKSTAYLQMNSLRAEDTAVYYCAKYPHYYGSSHWYFDVWGQGTLVTVSSASTKGPSVFPLAPSSKSTSGGTAALGCLVKDYFPEPVTVSWNSGALTSGVHTFPAVLQSSGLYSLSSVVTVPSSSLGTQTYICNVNHKPSNTKVDKKV[omitted - human IgG1 Fc with changes]
light: DIQMTQSPSSLSASVGDRVTITCSASQDISNYLNWYQQKPGKAPKVLIYFTSSLHSGVPSRFSGSGSGTDFTLTISSLQPEDFATYYCQQYSTVPWTFGQGTKVEIKRTVAAPSVFIFPPSDEQLKSGTASVVCLLNNFYPREAKVQWKVDNALQSGNSQESVTEQDSKDSTYSLSSTLTLSKADYEKHKVYACEVTHQGLSSPVTKSFNRGEC
B2: 162-20 (bispecific antibody, human IgG1, kappa)
heavy: QVQLVESGGGLVQPGGSLRLSCATSGSRRSIYAMGWFRQAPGKGLEFVAGIGWAYATTYYADSVKGRFTISRDNTKNTLYLQMNSLRAEDTAVYYCAADLDHSGFDYWGQGTLVTVSSGGGGSGGGGSGGGGSEVQLVESGGGLVQPGGSLRLSCAASGYDFTHYGMNWVRQAPGKGLEWVGWINTYTGEPTYAADFKRRFTFSLDTSKSTAYLQMNSLRAEDTAVYYCAKYPYYYGTSHWYFDVWGQGTLVTVSSASTKGPSVFPLAPSSKSTSGGTAALGCLVKDYFPEPVTVSWNSGALTSGVHTFPAVLQSSGLYSLSSVVTVPSSSLGTQTYICNVNHKPSNTKVDKKV[omitted - human IgG1 Fc with changes]
light: B1 light with M4L

Biological target: PD-1 on PD1-Jurkat cells (GenScript, Cat #RD00702) (UniProt Q15116 25-288, limits assumed)
Sequence of UniProt Q15116 (Q15116 25-288 limits assumed): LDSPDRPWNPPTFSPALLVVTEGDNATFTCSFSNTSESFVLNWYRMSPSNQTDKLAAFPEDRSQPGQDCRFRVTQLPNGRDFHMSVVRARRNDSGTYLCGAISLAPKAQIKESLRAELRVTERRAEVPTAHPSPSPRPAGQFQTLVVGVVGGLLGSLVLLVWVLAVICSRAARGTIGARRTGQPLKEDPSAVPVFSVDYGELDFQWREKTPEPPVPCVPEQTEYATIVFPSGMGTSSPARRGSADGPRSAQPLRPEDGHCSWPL
Experiment: cell-based or functional assay

Row | Binder | EC50 (nM), activity of blocking PD1 (luciferase reporter, PDL1-CHO + PD1-Jurkat cells) [nM]
1 | B1 | 0.607
2 | B2 | 1.36
